# From PubChem BioAssay (NCATS)
# This list was built around the results that the source calls inconclusive (neither active nor inactive); the mix of calls is not that of the screen. No potency is given beside an inconclusive call; the fits are too rough. The source made the active and inactive calls. Calls follow the shape of the dose curve; as a rule, active = well fitted curve in the direction sought with a large enough effect; inconclusive = small, poorly fitted or top-dose-only effect, or another doubt; inactive = no such curve, though single readings can be large; an effect the other way counts as inactive or inconclusive.
# Tests used:
# [1] = biological target: Rap guanine nucleotide exchange factor 3 (Homo sapiens) (UniProt O95398); test: Confirmatory qHTS for antagonist of cAMP-regulated guanine nucleotide exchange factor 3 (EPAC1) (AID 1645880); settings: EPAC1 Rap1B-BODIPY-GDP exchange, fluorescence; activity, negative = inhibition: at 115 µM (top of the series); also: nearly all actives have a fitted effect of over 55% in size;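 as to activity, negative = inhibition: plate controls were DMSO only for no effect and full effect of the ATA control for full effect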
# Sequence of UniProt O95398 (O95398 whole entry, looked up): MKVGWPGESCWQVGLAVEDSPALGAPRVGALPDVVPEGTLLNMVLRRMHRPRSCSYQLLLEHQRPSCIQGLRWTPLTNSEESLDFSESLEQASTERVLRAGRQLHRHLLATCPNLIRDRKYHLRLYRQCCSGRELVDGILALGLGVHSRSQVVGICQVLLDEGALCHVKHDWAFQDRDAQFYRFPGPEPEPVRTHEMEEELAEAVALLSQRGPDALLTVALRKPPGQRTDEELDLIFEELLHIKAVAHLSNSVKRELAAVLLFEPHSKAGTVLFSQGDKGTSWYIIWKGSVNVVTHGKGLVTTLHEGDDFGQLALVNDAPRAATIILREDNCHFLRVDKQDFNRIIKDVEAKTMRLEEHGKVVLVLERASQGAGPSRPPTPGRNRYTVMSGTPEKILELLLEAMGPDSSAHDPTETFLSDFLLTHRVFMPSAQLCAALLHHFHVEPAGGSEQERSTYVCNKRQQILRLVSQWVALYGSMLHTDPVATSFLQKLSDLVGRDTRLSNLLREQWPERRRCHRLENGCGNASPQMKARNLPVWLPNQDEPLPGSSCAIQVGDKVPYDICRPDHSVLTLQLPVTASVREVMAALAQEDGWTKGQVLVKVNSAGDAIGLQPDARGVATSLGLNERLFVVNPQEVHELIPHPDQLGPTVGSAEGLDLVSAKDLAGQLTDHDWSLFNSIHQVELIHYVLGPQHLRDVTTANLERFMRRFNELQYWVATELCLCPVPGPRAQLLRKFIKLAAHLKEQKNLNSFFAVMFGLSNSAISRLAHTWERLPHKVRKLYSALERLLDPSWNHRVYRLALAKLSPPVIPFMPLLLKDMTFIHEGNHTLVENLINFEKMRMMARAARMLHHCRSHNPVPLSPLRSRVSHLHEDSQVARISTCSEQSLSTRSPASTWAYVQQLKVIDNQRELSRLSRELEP
# How it was run: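 Released BODIPY-GDP fluoresces less than Rap1-bound BODIPY-GDP; the signal is followed at 480/540 nm at 5-min intervals over 30 min, after 5 min at room temperature. Reactions contain 100 nM EPAC1, 250 nM RAP1B-BODIPY-GDP and 50 uM GDP; results are normalized to ATA and DMSO.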
# [2] = biological target: Rap guanine nucleotide exchange factor 3 (Homo sapiens) (UniProt O95398); test: Confirmatory qHTS for agonist of cAMP-regulated guanine nucleotide exchange factor 3 (EPAC1) (AID 1645881); settings: EPAC1 Rap1B BODIPY-GDP exchange fluorescence; activation: at 154 µM (top of the series), 100% = cAMP control response; also: nearly all actives have a fitted effect of over 75% in size;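 as to activation: EPAC1 catalysed release of BODIPY-GDP from Rap1B seen as fluorescence loss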
# [3] = biological target: Rap guanine nucleotide exchange factor 3 (Homo sapiens) (UniProt O95398); test: Counterscreen qHTS for agonist of cAMP-regulated guanine nucleotide exchange factor 3 (EPAC1) (AID 1645889); settings: EPAC1 Rap1B-BODIPY-GDP exchange, fluorescence; activation: at 154 µM (top of the series) unless noted; also: nearly all actives have a fitted effect of over 40% in size; as to activation: % of control where 0% means no effect
# How it was run: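 Measured: fluorescence of BODIPY-GDP bound to Rap1B, which falls as exchange proceeds. Conditions include 50 uM competing GDP, 5 and 30 min reads, and a later cAMP challenge for antagonist detection.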
# Potency is read from the fitted curve at half-maximal effect; tags tell the direction and shape of the fitted curve.
Structure (SMILES),Potency [1],Potency [2],Potency [3],activation [3]
CCCN(CC(=O)Nc1ccccc1OC)C(=O)c1cccc(S(=O)(=O)Nc2ccc(OC)cc2)c1,"inconclusive [inhibitor, partial curve]",inactive,"inconclusive [activator, partial curve, poor fit]",
CCOc1cc(-c2ccc(OC(=O)c3ccccc3)c(OC)c2)cc(=O)c2c(C)oc(C)c12,"inconclusive [inhibitor, partial curve]",inactive,"inconclusive [activator, partial curve]",
O=C(N/N=C/c1ccc(O)c(O)c1)C1c2ccccc2Oc2ccccc21,"inconclusive [inhibitor, partial curve]","inconclusive [activator, partial curve, poor fit]",,inconclusive: 62.2% [activator]
CCN(CC(=O)Nc1ccc(NC(C)=O)cc1)CC(=O)Nc1ccc(F)c(Cl)c1,inactive,inactive,"inconclusive [activator, full curve, poor fit]",
COc1ccc(N=Cc2c(O)n(-c3cccc(C)n3)c(=O)c3ccccc23)c(OC)c1,inactive,"inconclusive [activator, partial curve, poor fit]",,inactive: 19.8% [at 30.8 µM]
COc1ccc(OC)c(C2=CC(=O)C[C@H](c3ccc4c(c3)OCO4)C2)c1,"inconclusive [inhibitor, partial curve, poor fit]","inconclusive [activator, partial curve, poor fit]","inconclusive [activator, single point]",
Oc1c(C(c2ccccc2)N2CCN(c3ccccc3)CC2)sc2nc(-c3ccco3)nn12 (configuration not stated),inactive,"inconclusive [activator, single point]",,inconclusive: 70.3% [activator]
COc1ccccc1-n1c(-c2ccccc2)c[n+]2c1CCc1ccccc1-2,inactive,inactive,inactive,
Cc1cc(Br)cn2c(Cc3ccsc3)c(-c3ccco3)nc12,"inconclusive [inhibitor, full curve]","inconclusive [activator, single point]",,inactive: 27.6% [at 30.8 µM]
NC(N)=N/N=C/c1ccc(OCc2ccc(Cl)cc2Cl)cc1,"inconclusive [inhibitor, partial curve]","inconclusive [activator, partial curve]",,inactive: 27.4% [at 30.8 µM]
COC(=O)c1c(SC)nc2ccccc2c1OCc1ccccc1C,inactive,inactive,"inconclusive [activator, full curve, poor fit]",
CCC(C)n1c(=N)c(C#N)cc2c(=O)n3ccccc3nc21 (configuration not stated),inactive,"inconclusive [activator, partial curve, poor fit]",,inactive: -4.07% [at 30.8 µM]
CCOC(=O)C1=C(C)NC(SC)=C(C#N)C1CC(C)C (configuration not stated),inactive,"inconclusive [activator, single point]",inactive,
O=C(Cc1ccc(Cl)cc1)N/N=C/c1ccc(O)c(O)c1,"inconclusive [inhibitor, partial curve]",inactive,inactive,
